{"source": "PubChem BioAssay AID1347165", "about": "(National Center for Advancing Translational Sciences (NCATS), 2019)", "note": "Hit rate of the full screen: of about 220,000 compounds, about 5,700 (2.6%) were called active. The shares of active, inactive and inconclusive entries below differ from those in the screen. Calls come from the whole dose curve; as a rule, active = well fitted inhibition curve with a large enough effect; inconclusive = small, poorly fitted or top-dose-only effect; inactive = no such curve, though single readings can be large or run the other way. A potency beside an inconclusive call is a rough fit, not a confirmed value."}
{"biological_target": "Lysine-specific demethylase 5B (Homo sapiens) (UniProt Q9UGL1)", "sequence (Q9UGL1 whole entry, looked up)": "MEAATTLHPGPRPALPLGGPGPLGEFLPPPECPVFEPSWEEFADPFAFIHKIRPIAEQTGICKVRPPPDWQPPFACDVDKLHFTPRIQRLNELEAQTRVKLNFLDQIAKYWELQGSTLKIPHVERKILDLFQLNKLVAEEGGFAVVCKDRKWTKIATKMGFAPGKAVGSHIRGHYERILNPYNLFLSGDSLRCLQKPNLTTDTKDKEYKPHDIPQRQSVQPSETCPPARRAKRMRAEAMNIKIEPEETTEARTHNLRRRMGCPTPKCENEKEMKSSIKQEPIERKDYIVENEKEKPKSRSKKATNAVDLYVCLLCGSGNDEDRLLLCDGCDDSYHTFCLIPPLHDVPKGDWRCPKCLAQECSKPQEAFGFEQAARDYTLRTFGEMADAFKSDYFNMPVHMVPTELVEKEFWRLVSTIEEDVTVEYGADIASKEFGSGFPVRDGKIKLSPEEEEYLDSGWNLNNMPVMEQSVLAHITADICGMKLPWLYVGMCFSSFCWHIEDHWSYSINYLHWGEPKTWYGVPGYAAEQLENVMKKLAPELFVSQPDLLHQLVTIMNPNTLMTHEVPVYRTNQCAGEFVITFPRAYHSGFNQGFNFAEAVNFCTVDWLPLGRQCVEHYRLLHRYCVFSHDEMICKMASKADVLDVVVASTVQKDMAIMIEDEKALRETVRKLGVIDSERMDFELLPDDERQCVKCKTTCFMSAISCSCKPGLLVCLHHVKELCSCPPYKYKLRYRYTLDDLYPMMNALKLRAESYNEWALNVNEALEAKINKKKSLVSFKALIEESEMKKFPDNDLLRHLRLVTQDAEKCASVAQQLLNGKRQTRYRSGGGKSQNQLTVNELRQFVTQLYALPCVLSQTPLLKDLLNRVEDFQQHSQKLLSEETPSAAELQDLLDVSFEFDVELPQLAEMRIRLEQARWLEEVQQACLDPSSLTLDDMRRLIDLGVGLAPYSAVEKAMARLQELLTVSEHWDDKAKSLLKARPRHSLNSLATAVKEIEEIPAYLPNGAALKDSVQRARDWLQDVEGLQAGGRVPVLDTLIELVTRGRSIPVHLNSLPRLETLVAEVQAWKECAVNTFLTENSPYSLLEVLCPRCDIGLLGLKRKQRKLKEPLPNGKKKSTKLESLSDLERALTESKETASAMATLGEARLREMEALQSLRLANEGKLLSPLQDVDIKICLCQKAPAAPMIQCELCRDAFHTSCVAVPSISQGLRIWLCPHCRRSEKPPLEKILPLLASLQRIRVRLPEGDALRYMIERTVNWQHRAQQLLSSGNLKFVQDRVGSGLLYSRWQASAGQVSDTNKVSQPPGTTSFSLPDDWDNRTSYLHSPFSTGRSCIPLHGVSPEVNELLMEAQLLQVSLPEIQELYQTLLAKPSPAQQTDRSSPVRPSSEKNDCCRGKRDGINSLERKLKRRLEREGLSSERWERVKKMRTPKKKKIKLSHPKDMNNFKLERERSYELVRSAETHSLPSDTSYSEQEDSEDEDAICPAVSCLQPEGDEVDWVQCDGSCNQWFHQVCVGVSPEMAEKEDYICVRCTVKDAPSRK", "assay": "Primary screen for KDM5B Histone Demethylases FDH-coupled qHTS; note: nearly all actives have a fitted effect of over 70% in size; note: potency is the fitted concentration of half-maximal effect; tags give direction and shape of the fitted curve; for activity change, negative = inhibition: 0% is about no effect", "details": "FDH-coupled NADH fluorescence (FDH is formaldehyde dehydrogenase); activity change, negative = inhibition: at 57.7 µM (top of the series) unless noted", "summary_of_the_method": "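Compound dilutions met 200 nM (final) KDM5BΔAP for 10 min at room temperature before substrate addition. The substrate mix held 12.5 µM H3K4me3 with cofactors 25 µM α-ketoglutarate and 50 µM Fe²⁺. NADH signal gain over 30 min defined activity.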"}
{"compound": "O=C(NCc1ccccc1)C1CC(=O)N(c2n[nH]c3cccc(F)c23)C1", "note": "(stereo not drawn)", "activity change, negative = inhibition": "inactive: -9.66%"}
{"compound": "CC1=C[C@@H](CNCc2ccncc2)[C@H](C(C)C)C[C@H]1Cc1nnc(-c2ccc([N+](=O)[O-])cc2)o1", "Potency": "inconclusive: 28.2 µM [inhibitor, single point]"}
{"compound": "CN(CC(=O)N1CCc2c(c(-c3nncn3CC3CC3)nn2C)C1)S(=O)(=O)c1cnc[nH]1", "Potency": "active: 22.4 µM"}
{"compound": "Cc1ccc(NC(=O)c2cccc(N(C)C)c2)c(C)c1", "activity change, negative = inhibition": "inactive: 22.6%"}
{"compound": "CCCN(Cc1cc2cc(C)ccc2[nH]c1=O)C(=O)c1cccnc1", "Potency": "inconclusive: 31.6 µM [inhibitor, single point]"}
{"compound": "COc1nnc(-c2ccc(N3CCCCC3)c(NC(=O)c3ccc(Cl)cc3)c2)c2ccccc12", "Potency": "inconclusive: 15.8 µM [inhibitor, partial curve, poor fit]"}
{"compound": "Cc1noc(C)c1COc1ccc(C(=O)NCCOc2ccccc2)cc1", "activity change, negative = inhibition": "inactive: 22.7%"}
{"compound": "COc1ccc(OC)c(/C=N/NC(=O)c2[nH]ncc2Br)c1", "Potency": "inconclusive: 28.2 µM [inhibitor, partial curve, poor fit]"}
{"compound": "COc1ccc(-c2cc(C(F)(F)F)nc(SCC(=O)Nc3ccc(C(C)=O)cc3)n2)cc1", "Potency": "inconclusive: 25.1 µM [inhibitor, partial curve, poor fit]"}
{"compound": "O=C(NCc1ccc(-c2cnc3c(Oc4ccccc4)nccn23)cc1)c1ccn[nH]1", "Potency": "inconclusive: 39.8 µM [inhibitor, partial curve, poor fit]"}
{"compound": "N#Cc1nc(COc2ccc(Cl)cc2)oc1NCc1ccco1", "Potency": "inconclusive: 28.2 µM [inhibitor, single point]"}
{"compound": "CCOc1ccc(NC(=O)Cn2c(=O)n(C)c(=O)c3sc(N4CCCC4)nc32)cc1", "activity change, negative = inhibition": "inactive: 14.9%"}
{"compound": "CNC(=O)c1cc(-c2ccc(C)cc2)cc2c1OCCN2Cc1cccnc1", "Potency": "inconclusive: 39.8 µM [inhibitor, partial curve, poor fit]"}
{"compound": "Cc1c(C(=O)NC2=NCCS2)sc2cccc(F)c12", "Potency": "inconclusive: 39.8 µM [inhibitor, single point]"}
{"compound": "Cc1cc(C)n(CCC(=O)N2CC(Oc3ccc(-c4nc(-c5ccccc5)no4)cc3)C2)n1", "activity change, negative = inhibition": "inactive: 1.33%"}
{"compound": "CCN(Cc1ccccc1)Cc1nc2sc(C(=O)OC)c(C)c2c(=O)[nH]1", "Potency": "inconclusive: 31.6 µM [inhibitor, partial curve, poor fit]"}
{"compound": "CN(C)c1ccc(CN2CC[C@H](c3nc4ccc(C(F)(F)F)cc4[nH]3)C2)cc1", "Potency": "inconclusive: 39.8 µM [inhibitor, partial curve]"}
{"compound": "CN1CC(=O)N(c2ccc([N+](=O)[O-])cc2)Cc2c1ncnc2N1CCN(c2ncccn2)CC1", "Potency": "inconclusive: 28.2 µM [inhibitor, single point]"}
{"compound": "COc1nc2ccccc2cc1-c1noc(-c2cccs2)n1", "activity change, negative = inhibition": "inactive: -9.62%"}
{"compound": "Cc1ccc(NC(=O)CN(C)C(=O)/C=C/c2ccc3c(c2)OCO3)cc1", "Potency": "inconclusive: 35.5 µM [inhibitor, partial curve, poor fit]"}
{"compound": "CCNc1ncnc2c1CN(C1CCCNC1)C(=O)CN2C", "note": "(stereo not drawn)", "Potency": "inconclusive: 44.7 µM [inhibitor, partial curve, poor fit]"}
{"compound": "O=C(N/N=C/c1cccc(OCCCOc2ccccc2Cl)c1)c1ccccc1", "activity change, negative = inhibition": "inactive: 3.74%"}
{"compound": "Cc1noc(-c2ccc(OC3CN(C(=O)c4ccco4)C3)cc2)n1", "activity change, negative = inhibition": "inactive: -1.11%"}
{"compound": "COc1ccc(C2C(C#N)=C(N)OC(C(C)(C)C)=C2C#N)c(OC)c1OC", "note": "(stereo not drawn)", "activity change, negative = inhibition": "inactive: -26.7%"}
{"compound": "O=C(O)c1ccccc1NC(=O)N1c2ccccc2Sc2ccccc21", "Potency": "inconclusive: 3.16 µM [inhibitor, partial curve, poor fit]"}
{"compound": "Cc1oc(-c2cccc(Cl)c2)nc1CN1CCN(C(=O)c2ccco2)CC1", "activity change, negative = inhibition": "inactive: -14.6%"}
{"compound": "COc1ccccc1CNC(=O)c1cc2cc(S(=O)(=O)N3CCCCC3)ccc2n1C", "Potency": "inconclusive: 44.7 µM [inhibitor, single point]"}
{"compound": "CS(=O)(=O)N1CCC(OC2CCN(C(=O)NCc3ccco3)CC2)CC1", "activity change, negative = inhibition": "inactive: -7.5%"}
{"compound": "CCC(C)NC(=O)C1CCN(S(=O)(=O)c2ccc3c(ccn3CC)c2)CC1", "note": "(stereo not drawn)", "Potency": "inconclusive: 28.2 µM [inhibitor, single point]"}
{"compound": "O=C(NCc1ccnc2[nH]ccc12)c1cncc(Br)c1", "activity change, negative = inhibition": "inactive: -16.9% [at 86.2 µM]"}
{"compound": "O=C(Nc1ccc(Cc2nc3ccccc3s2)cc1)C1CC=CCC1", "note": "(stereo not drawn)", "activity change, negative = inhibition": "inactive: 21.5%"}
{"compound": "Nn1c(=S)[nH]c2sc3c(c2c1=O)CCCC3", "Potency": "inconclusive: 39.8 µM [inhibitor, partial curve, poor fit]"}
{"compound": "COc1ccc2c(c1)c1c(c(=O)n(-c3ccc(C)cc3)c(=O)n1CC(=O)Nc1cc(C)ccc1C)n2C", "Potency": "inconclusive: 10 µM [inhibitor, partial curve, poor fit]"}
{"compound": "CCOc1cc(Br)c(C2C(C(=O)OC)=C(C)NC3=C2C(=O)c2ccccc23)cc1OCC", "note": "(stereo not drawn)", "Potency": "inconclusive: 14.1 µM [inhibitor, partial curve, poor fit]"}
{"compound": "O=C(Nc1cccc(C(F)(F)F)c1)c1ccc(F)c(S(=O)(=O)N2CCc3ccccc3C2)c1", "Potency": "inconclusive: 17.8 µM [inhibitor, partial curve, poor fit]"}
{"compound": "CCC(C)(C)NC(=O)c1ccc(-c2nnc3ccc(NC(=O)C4CC4)cn23)cc1", "Potency": "inconclusive: 1 µM [inhibitor, full curve, poor fit]"}
{"compound": "COc1ccc(-c2nc(C)c(CCNC(=O)c3ccccc3Br)s2)cc1OC", "Potency": "inconclusive: 35.5 µM [inhibitor, partial curve, poor fit]"}
{"compound": "CCCCc1cn(CC2CCN(C(=O)c3ccsc3)CC2)nn1", "activity change, negative = inhibition": "inactive: 38%"}
{"compound": "COc1ccccc1CC(=O)NCc1nnc2cc(-c3nc(C(C)C)no3)ccn12", "Potency": "inconclusive: 31.6 µM [inhibitor, partial curve, poor fit]"}
{"compound": "COc1ccc(Nc2nc3ccccc3nc2NS(=O)(=O)c2ccccc2)c(OC)c1", "activity change, negative = inhibition": "inactive: -12.5%"}
{"compound": "CCOC(=O)c1ccccc1NC(=O)Cn1c(=O)n(Cc2ccc(C(=O)NCc3ccc4c(c3)OCO4)cc2)c(=O)c2ccccc21", "Potency": "inconclusive: 2 µM [inhibitor, full curve, poor fit]"}
{"compound": "CCC[C@H]1CN(CCS(C)(=O)=O)C[C@@H]1NC(=O)c1n[nH]nc1C", "activity change, negative = inhibition": "inactive: -13.4%"}
{"compound": "CCCCN1C(=O)CC[C@H]2CN(C(=O)Cc3cnccn3)CC[C@H]21", "activity change, negative = inhibition": "inactive: 14%"}
{"compound": "CC(C)CCC(=O)N[C@@H]1CN(C)C[C@H]1CN(C)C", "Potency": "inconclusive: 35.5 µM [inhibitor, partial curve, poor fit]"}
{"compound": "O=C(NCc1ccc2c(c1)OCO2)C1CCCN(c2nc3ncccc3o2)C1", "note": "(stereo not drawn)", "Potency": "inconclusive: 7.94 µM [inhibitor, partial curve]"}
{"compound": "N#CC1=C2SCN(C3CCCCC3)CN2C(=O)CC1c1ccc(F)cc1", "note": "(stereo not drawn)", "Potency": "inconclusive: 2.51 µM [inhibitor, full curve, poor fit]"}
{"compound": "CCCOc1ccc(NC(=O)c2ccccc2Cl)c2cccnc12", "activity change, negative = inhibition": "inactive: 1.01%"}
{"compound": "CCc1ccc(NC(=O)Cc2nc(-c3cc(C)n(-c4cc(C)on4)c3C)cs2)cc1", "activity change, negative = inhibition": "inactive: 3.49%"}
{"compound": "N#CC(C#N)=C(Nc1ccc(Oc2ccccc2)cc1)C(F)(F)C(F)(F)F", "activity change, negative = inhibition": "inactive: -11.9%"}
{"compound": "CC1CCN(c2ccc(-c3ccc(NS(=O)(=O)c4ccc(Cl)s4)cc3)nn2)CC1", "activity change, negative = inhibition": "inactive: -17.5%"}
{"compound": "CC(C)c1ccc(NC(=O)C2CCCC2)cc1", "activity change, negative = inhibition": "inactive: 25.7%"}
{"compound": "Cc1c(NC(=O)CCc2cc3n(n2)CCNC3)c(C)n(C)c(=O)c1C(N)=O", "Potency": "inconclusive: 11.2 µM [inhibitor, partial curve]"}
{"compound": "CCn1nc(C(=O)N2CCC(C(N)=O)CC2)c2ccccc2c1=O", "activity change, negative = inhibition": "inactive: 1.12%"}
{"compound": "COc1ccc(-n2nc3cc(C)c(NC(=O)c4ccc(C)cc4C)cc3n2)cc1Cl", "Potency": "inconclusive: 25.1 µM [inhibitor, partial curve, poor fit]"}
{"compound": "CCOc1c(Cl)cc(C(=O)N2CCN(C(=O)OC(C)(C)C)CC2)cc1OC", "activity change, negative = inhibition": "inactive: -15.6%"}
{"compound": "COc1ccc(-c2nc(C3CC(=O)N(c4ccc(C)cc4)C3)no2)c(C)c1", "note": "(stereo not drawn)", "Potency": "inconclusive: 35.5 µM [inhibitor, single point]"}
{"compound": "Cc1ccc(-c2ccc3nnc(CNC(=O)c4ccncc4)n3n2)cc1C", "Potency": "active: 28.2 µM"}
{"compound": "COc1cc(F)ccc1CNCc1cccnc1N1CCOCC1", "Potency": "inconclusive: 10 µM [inhibitor, partial curve]"}
{"compound": "COc1ccc(NC(=O)C2c3ccccc3Oc3ccccc32)cc1F", "Potency": "inconclusive: 35.5 µM [inhibitor, partial curve, poor fit]"}
{"compound": "CCC1CN(C(=O)Nc2cc(OC)cc(OC)c2)c2ccccc2S1", "note": "(stereo not drawn)", "activity change, negative = inhibition": "inactive: -29.7%"}
{"compound": "COc1ccc(NC(=O)[C@@H]2C[C@@H](c3cccc(C(F)(F)F)c3)N(CC3CCOCC3)C2)cc1", "Potency": "inconclusive: 28.2 µM [inhibitor, single point]"}
{"compound": "COCCN(Cc1nc2ccccc2c(=O)[nH]1)C(=O)c1oc2ccc(F)cc2c1C", "Potency": "inconclusive: 20 µM [inhibitor, partial curve, poor fit]"}
{"compound": "O=C(NCc1nnc2n1C(C(=O)N1CCN(c3ncccn3)CC1)CC2)c1cccnc1", "note": "(stereo not drawn)", "Potency": "inconclusive: 44.7 µM [inhibitor, partial curve]"}
{"compound": "CC(NC(=O)CC1C=CCC1)c1cccs1", "note": "(stereo not drawn)", "activity change, negative = inhibition": "inactive: 5.47%"}
{"compound": "O=C1CCC/C(=N/NC(=O)c2cc(-c3ccncc3)nc3ccccc23)C1", "activity change, negative = inhibition": "inactive: -14.2%"}
{"compound": "COc1ccc2nc(N3C(=O)C(O)=C(C(=O)c4ccco4)C3c3cccc(OC)c3OC)sc2c1", "note": "(stereo not drawn)", "activity change, negative = inhibition": "inactive: -23.6%"}
{"compound": "COc1cccc(NC(=O)C2CCCN2S(=O)(=O)c2ccc3c(c2)n(C)c(=O)c(=O)n3C)c1", "note": "(stereo not drawn)", "Potency": "inconclusive: 10 µM [inhibitor, partial curve, poor fit]"}
{"compound": "COc1cccc(C(=O)N2CCC3(CC2)NC(=O)N(c2ccccc2)N3)c1", "Potency": "inconclusive: 10 µM [inhibitor, partial curve]"}
